Source: the supplement of paper PMC11417369
± gives the standard deviation of the averaged measurements. The list shows a part of the results.

Tested on: PfAP2-EXP AP2 domain (GST-tagged)
Assay: gcPBM binding intensity (ln(normalized median fluorescence intensity)); higher = stronger DNA binding
In short: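 GST-fused DNA-binding domains of P. falciparum, expressed in E. coli, were applied at about 25 μg on average for 1 h to an Agilent 4 × 180k array of primer-extended double-stranded 36-bp intergenic genomic probes and negative controls. Binding intensity is the highest Masliner-normalised natural-log median intensity across replicate spots of either probe orientation, measured with Alexa488 anti-GST antibody and a 488 nm scan.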

| Sequence | gcPBM binding intensity (ln) |
| --- | --- |
| AGTAGTCTGGAGAAGAGTACACAGTATCTGGTAACA [XGTACX_site2032] | 8.45 ± 0.52 |
| TAATATCAATTTTTATGTACTTATATATATATATAT [XGTACX_site5879] | 10.02 ± 0.099 |
| AAAAATCATATAGGTTGTACGGGTAGTTTATTTTAT [XGTACX_site6936] | 8.54 ± 0.43 |
| GTGTATATATGTTATACACACAAAAATATTTTGTAT [CACACA_site265] | 8.44 ± 0.39 |
| AGATCAATAATGACAAGTACACAAAATAACATTTAA [XGTACX_site6968] | 8.57 ± 0.38 |
| AAAATATATTAAGGCACACACATACATATTTATATA [CACACA_site7707] | 8.59 ± 0.45 |
| ACAAAAAAAAAAAAAAAAAAAAAAAAAAAATAATAA [CACACA_negctrl_site1640] | 7.86 ± 0.5 |
| ATTTTGTAAAAGGTCATACACACATATTCAAAAGAA [CACACA_site2946] | 8.53 ± 0.38 |
| AATATATATTAAATATGTACTTATTTTTTGGTTGCT [XGTACX_site3613] | 8.62 ± 0.31 |
| CGCACCCACAGACACACACACACATATATATATATA [CACACA_site2202] | 9.93 ± 0.81 |
| AAAGAATAATTAAATACACACATATTACAGTAAAAA [CACACA_site2450] | 8.76 ± 0.41 |
| TACATACAGAAACACACACACACATATATATATATA [CACACA_site2919] | 10 ± 0.28 |
| TTATACATATTTATATGTACGTAATATAATATTAAT [XGTACX_site6520] | 8.44 ± 0.26 |
| TTATAATTTTTCTATTGTACATTTAATAATATATAT [XGTACX_site7326] | 8.7 ± 0.35 |
| TATTTAATTTATACACGTACATATATAAATAATACA [XGTACX_site1148] | 8.5 ± 0.28 |
| ATGAAGAAATAAATGTGTACATATCTTAGTATCATA [XGTACX_site8658] | 8.58 ± 0.34 |
| TCATGGGTGTATTTCACACACGGATAATCATTTATA [CACACA_site4663] | 8.32 ± 0.45 |
| TATAATGATGATGATAGTACGTATTAGTATAAAAAA [XGTACX_site9] | 8.74 ± 0.42 |
| AGAAATAAAAAAAAAAATATATATATTATATATATA [CACACA_negctrl_site1799] | 8.955 ± 0.007 |

| Sequence | gcPBM binding intensity (ln) |
| --- | --- |
| ATATTTTTTTTTGTTACACACGTTTTTTAAAAAATG [CACACA_site1603] | 9.1 ± 0.51 |
| TCATAAAAATAAAAATGTACACATTAGAAATATTGT [XGTACX_site3671] | 8.51 ± 0.39 |
| TTACTATAAAATGTCACACATTCTGTTTCCTTACTT [CACACA_site5714] | 8.6 ± 0.49 |
| ATTTTTTCTCATAAAAACGTGAACGTTTATTTTACA [CACACA_negctrl_site1041] | 8.73 ± 0.38 |
| TCAACAAAATTGAAGGAACACACATACATATATATA [CACACA_site7940] | 8.87 ± 0.23 |
| TATAAATATCTGTATGCACACATTTTTTTTGGAAAA [CACACA_site4734] | 8.62 ± 0.37 |
| AGCACATAAATAATTAAACACACATTGTTCTAGACA [CACACA_site8746] | 8.41 ± 0.38 |
| ATTATAAAAGAATTTTTTTTTATTTCATTAAAATAT [CACACA_negctrl_site1137] | 7.88 ± 0.38 |
| AAAAAAATACATACGTGTACCCACATATATGTATCT [XGTACX_site5319] | 8.47 ± 0.29 |
| GTTTCTACTTATATAACAGGACACGTGTGAATAATT [TGCATGCA_negctrl_site430] | 9.13 ± 0.51 |
| AAAAAAAAAAAACATTGTACGCACATTTTATATGTC [XGTACX_site6974] | 8.71 ± 0.42 |
| ACAATTGCATCTATCACACATACATACATACATACA [CACACA_site5063] | 9.2 ± 0.2 |
| TTGAAGGTGGCAATGTGTACATAGAATAACCAGTGC [XGTACX_site4738] | 9.01 ± 0.41 |
| GCAAGTCCATGAACGGTGCAGGAATTAACAAAAATA | 8.72 ± 0.36 |
| AATAAAAATAAAAGCACACATAAATATATATATATT [CACACA_site1441] | 8.66 ± 0.39 |
| TCATGGCCATTTTCAGTGCATATGTGTATTTAATAT [GTGCAC_site9529] | 8.8 ± 0.4 |
| TTTATGTATTTAATATGTACATATAGTTGTTAATAA [XGTACX_site1938] | 8.53 ± 0.24 |
| AAAATGTACGCATATACACACACATAAATAGATACG [CACACA_site9124] | 8.71 ± 0.45 |
| GCTATATATTAATGTTGTACTTTATGTTCATATTGT [XGTACX_site3619] | 8.8 ± 0.3 |

| Sequence | gcPBM binding intensity (ln) |
| --- | --- |
| ATATATATATAATTATATAAAATATATCATATGTTA [XGTACX_negctrl_site47] | 9.37 ± 0.14 |
| AAGAAATAATTATTATGTACTTAAAAAAATTAAAAT [XGTACX_site7423] | 8.45 ± 0.38 |
| AAGAAATAAATACATACACACATATATAAATAAATA [CACACA_site7559] | 8.68 ± 0.18 |
| AAGGTATACACTGCTTTATCAAGTTTAACTCTTTTT [XGTACX_negctrl_site118] | 8.46 ± 0.37 |
| ATCATTTTTATGTACACACACATATACGTTGAATAT [CACACA_site1865] | 8.87 ± 0.42 |
| ACATCATAAAATTTATGTACACATTTTTAATTATAC [XGTACX_site7759] | 8.66 ± 0.28 |
| AAGATATGAGGGAATACACACATATTTATATTTATA [CACACA_site6846] | 8.26 ± 0.38 |
| TATAAAATTTACGTGTGTACATATTTAATAATTTTT [XGTACX_site5001] | 8.4 ± 0.4 |
| AAATTTGAAATGCATGAACACACACCGCTATAAATG [CACACA_site8230] | 8.94 ± 0.4 |
| TAAATATAGAAACACACACACATTAATACATATATT [CACACA_site3489] | 8.71 ± 0.49 |
| TAATTTTTTATATATTGTACAAATAATATATGATGT [XGTACX_site268] | 8.46 ± 0.23 |
| TTCGTAATTTATATCACACACATATATATATAATAA [CACACA_site3115] | 8.64 ± 0.37 |
| TACCCTTGCATGTAGGTGCAATTTTTTTTTTTTTTT | 9.06 ± 0.042 |
| CAACTTTATACATATAGTACAAGTTATATTTTATTA [XGTACX_site6651] | 8.02 ± 0.38 |
| AACGATTTACATCACTGTACTAATGATATACCTCAT [XGTACX_site7463] | 8.45 ± 0.23 |
| TATATATTTTCTTTTGCACACTGTTTTCCTTTTTTT [CACACA_site2739] | 9.14 ± 0.57 |
| TATATATATATATATTGTACTATATAGTATCTTTTT [XGTACX_site1646] | 9.98 ± 0.55 |
| CTTTCCATATATGATAGTACACGATAAAAAAAAAAA [XGTACX_site5772] | 8.64 ± 0.44 |
| TTTAAAAAAAATTCATATTATATATATATATATTAT [CACACA_negctrl_site1733] | 7.92 ± 0.23 |
